Source: PubChem BioAssay AID1345083 (National Center for Advancing Translational Sciences (NCATS), 2018)
Several values for one entry are separate records, joined by “and”; a condition that tells them apart may be missing. Equal values may be shown once. About 6,200 (6.6%) of roughly 94,000 compounds were called active. Inconclusive means that the source gave no clear call. Such entries were picked first, then a sample of the others. The call rests on the fitted dose curve; in most records, active means well fitted inhibition curve with a large enough effect; inconclusive means small, poorly fitted or top-dose-only effect; inactive means flat fitted curve, though single readings scatter. A potency beside an inconclusive call is a rough fit, not a confirmed value.
Potency means the concentration at half of the fitted maximal effect; tags describe the fitted curve by direction and shape.

Experiment: Cytotoxic Profiling in HEK 293 Cell Line of Diverse Libraries Using Quantitative High-Throughput Screening; further: nearly all actives have a fitted effect of over 60% in size
Conditions: HEK 293 viability, ATP luminescence (CellTiter-Glo), 48-72 h; series mostly up to 115 µM
How it was run: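 Cells seeded first (HEK 293, 250 cells/well), then compound added by pintool. Incubation ran 48 or 72 hr at 37 degree Celsius. CellTiter-Glo was added and luminescence imaged after 10 min at room temperature.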
With `O=C(Nc1ccc(F)cc1)C1CN(c2ccccc2)C(=O)N1` (stereo not given) the Potency was “inactive”.
With `CC(C)C(=O)N[C@H]1C[C@@H](Cc2cc(COc3ccccc3)on2)C1(C)C` the Potency was active: 39.8 µM.
In the case of `CCOC(=O)[C@@H]1CN(C(=O)OCC(C)C)[C@H]2c3cccc(C)c3O[C@@H]12`, the Potency is reported as inconclusive: 50.1 µM [inhibitor, partial curve, poor fit].
For `CSCC(=O)N[C@H]1CCN2C(=O)c3cc(-c4ccc(Cl)cc4)ccc3NC(=O)[C@H]12`, the Potency was inconclusive: 126 µM [inhibitor, single point].
For `Cc1cccc2cc(C(=O)N3CCCC(Nc4ccc(F)cc4)C3)oc12` (stereo not given), the Potency was inconclusive: 89.1 µM [inhibitor, single point].
With `O=C(NCCc1ccccc1F)c1nc2sccn2c1-c1ccc(C(F)(F)F)cc1` the Potency was active: 25.1 µM.
For `COc1ccccc1CN1CCc2nc(C3CC3)nc(-c3ccc(O)cc3)c2CC1`, the Potency was active: 44.7 µM.
With `Cc1cc2cc(-c3c(C)noc3C)nc(NCc3cccnc3)c2o1` the Potency was inconclusive: 39.8 µM [inhibitor, partial curve].
For `COC(=O)[C@@H]1CCCN1c1ccc(-c2nc(-c3ccccc3F)no2)cn1`, the Potency was active: 39.8 µM.
With `COCCN1Cc2ccc(NCc3ccccc3)nc2C(C)(C(=O)NC2COC2)C1` (stereo not given) the Potency was inconclusive: 100 µM [inhibitor, partial curve].
For `COc1cccc(CNC(=O)Nc2cccc(-c3ccc(N4CCCCC4)nn3)c2)c1`, the Potency was active: 31.6 µM.
For `COc1ccc(-c2ccc(C(=O)N3CCCC3)cc2)nn1`, the Potency was active: 25.1 µM.
In the case of `CN(CC1(C)CCOCC1)C(=O)c1ccco1`, the Potency is reported as “inactive”.
For `CNC(=O)C(C)(C)N1CCC[C@H]1C(=O)N1CCCC1`, the Potency was “inactive”.
For `FC(F)(F)c1cccc(C2=NOC3(CCCN(Cc4ccccn4)C3)C2)c1` (stereo not given), the Potency was inconclusive: 79.4 µM [inhibitor, partial curve, poor fit].
For `O=C1c2c(nc(CNc3ccc(OC(F)(F)F)cc3)n2Cc2ccccc2)NCCN1CCN1CCOCC1`, the Potency was inconclusive: 56.2 µM [inhibitor, partial curve, poor fit].
In the case of `Cc1ccc([S+](=O)([O-])N2CC(=O)N(CCc3ccccc3)CC(O)C2)cc1` (stereo not given), the Potency is reported as inconclusive: 63.1 µM [inhibitor, partial curve, poor fit].
In the case of `O=C(NCc1ccc(F)cc1)N1CCC(OCCOc2ccc(F)cc2)CC1`, the Potency is reported as inconclusive: 10 µM [inhibitor, full curve, poor fit].
For `CC(NC(=O)OCc1ccccc1)c1nc2cccnc2n1C1CCCCC1` (stereo not given), the Potency was inconclusive: 89.1 µM [inhibitor, single point] and inconclusive: 39.8 µM [inhibitor, partial curve, poor fit].
In the case of `Cc1ccc(S(=O)(=O)N2CCC(n3cnnc3-c3ccccc3)CC2)cc1Cl`, the Potency is reported as inconclusive: 35.5 µM [inhibitor, partial curve, poor fit].
For `O=C(CN1C(=O)COc2ccc(C(=O)COc3ccc(Cl)cc3F)cc21)NCCc1ccccc1`, the Potency was inconclusive: 17.8 µM [inhibitor, full curve, poor fit].
In the case of `CN1C[C@H](O)C[C@H]1c1nnc2n1CCN(Cc1ccc(F)c(F)c1)C2`, the Potency is reported as “inactive”.
In the case of `Cn1cccc1CN1CCn2c(nn(-c3ccc(Cl)cc3)c2=O)C1`, the Potency is reported as inconclusive: 50.1 µM [inhibitor, partial curve, poor fit].
For `CN(Cc1ccon1)Cc1cc2n(n1)CCN(C(=O)c1ncoc1C1CC1)C2`, the Potency was “inactive”.
With `CC(=O)N1CCC(C(NC(=O)c2ccccc2)C(=O)NCc2ccco2)CC1` (stereo not given) the Potency was inconclusive: 50.1 µM [inhibitor, partial curve, poor fit].
In the case of `CCc1cc(=O)n(CC(=O)Nc2ccc(N(C)C)cc2)c(-c2cccc(F)c2)n1`, the Potency is reported as inconclusive: 25.1 µM [inhibitor, partial curve].
With `CC(=O)N1CCC(c2nnc3n2C(C(=O)NCc2ccccc2Cl)CC3)CC1` (stereo not given) the Potency was “inactive”.
For `COc1ccccc1C(=O)NC[C@H]1Cn2c(-c3ccc(Cl)cc3)cnc2CO1`, the Potency was active: 12.6 µM.
For `COc1cc(NC(=O)Cn2cccc2-c2nc(-c3ccc(OC)c(F)c3)no2)cc(OC)c1`, the Potency was inconclusive: 22.4 µM [inhibitor, full curve].
In the case of `Cc1noc(-c2cccc(F)c2)c1C(=O)NCCCc1ccccc1`, the Potency is reported as inconclusive: 79.4 µM [inhibitor, partial curve, poor fit].
For `CCCCCNC(=O)CNC(=O)c1cccc(-c2ccsc2)c1`, the Potency was “inactive”.
In the case of `CCn1cc(CN2CCCC(c3nc(-c4cnccn4)no3)CCNC(=O)CC2)cn1` (stereo not given), the Potency is reported as “inactive”.
For `CN(C)S(=O)(=O)N1CCc2nn(CC3CC3)c(=O)n2CC1`, the Potency was “inactive”.
For `CCc1ccc(N2CC(c3noc(-c4ccsc4)n3)CC2=O)cc1` (stereo not given), the Potency was inconclusive: 89.1 µM [inhibitor, single point].
With `CC(C)(C)OC(=O)NCCCC(=O)N1CCC(n2c(=O)[nH]c3ccccc32)CC1` the Potency was inconclusive: 56.2 µM [inhibitor, partial curve, poor fit].
In the case of `OCc1ccc(CN2C[C@H](O)C[C@H]2c2nc(-c3ccccc3)no2)o1`, the Potency is reported as “inactive”.
With `O=C1[C@H]2CN(Cc3ccc(C(F)(F)F)cc3)C[C@H]2C(=O)N1Cc1ccc2c(c1)OCO2` the Potency was inconclusive: 50.1 µM [inhibitor, partial curve, poor fit].
With `O=C(O)COCC(=O)N[C@H]1CO[C@H]2[C@@H]1OC[C@@H]2n1nnnc1-c1ccc2c(c1)OCO2` the Potency was “inactive”.
For `O=C(CC1CCCCC1)NC(Cc1ccccc1)C(=O)N1CCN(c2ccccn2)CC1` (stereo not given), the Potency was inconclusive: 89.1 µM [inhibitor, single point].
In the case of `N#Cc1cccc(CN2C[C@H](O)C[C@H]2c2nc(-c3ccc4c(c3)OCO4)no2)c1`, the Potency is reported as active: 100 µM.
For `CCOc1ccc(CC(=O)NCc2nnc3ccc(-c4ccc(C)cc4)nn23)cc1`, the Potency was inconclusive: 100 µM [inhibitor, single point].
With `COc1ccccc1CNc1ccc2nnc(C)n2n1` the Potency was inconclusive: 79.4 µM [inhibitor, single point].
In the case of `CN(C)c1ccc(-c2noc(-c3nc(-c4ccccc4F)no3)n2)cc1`, the Potency is reported as “inactive”.
For `O=C(NCC1CC1)c1cc2n(n1)CC(c1ccc(Cl)cc1)OC2` (stereo not given), the Potency was inconclusive: 39.8 µM [inhibitor, full curve, poor fit].
In the case of `COc1ccc(NC(=O)Cn2c(C)cc3nc4n(c(=O)c32)CCCCC4)cc1`, the Potency is reported as inconclusive: 89.1 µM [inhibitor, single point].
In the case of `O=C(Cn1c2c(c(=O)n1Cc1ccccc1)CCN(Cc1ccccc1)C2)NCc1cccc(Cl)c1`, the Potency is reported as inconclusive: 89.1 µM [inhibitor, single point].
In the case of `CCNC(=O)[C@@H]1C[C@H](NC(=O)CCc2ccccc2F)CN1C1CCCC1`, the Potency is reported as inconclusive: 31.6 µM [inhibitor, single point].
With `Cc1ccc(C(=O)N2CCC(Oc3ccc(C(=O)N(C)C)cn3)CC2)s1` the Potency was inconclusive: 79.4 µM [inhibitor, single point].
For `COc1cccc(C(=O)NCC2CCCN(C/C(C)=C/c3ccccc3)C2)c1OC` (stereo not given), the Potency was inconclusive: 56.2 µM [inhibitor, partial curve, poor fit].
For `COc1ccccc1CN1Cc2cc(NC(=O)Cc3cccs3)ccc2OC(C)C1=O` (stereo not given), the Potency was inconclusive: 10 µM [inhibitor, full curve, poor fit].
In the case of `COc1cccc(C(=O)NCC2CCCN(Cc3ccccn3)C2)c1OC` (stereo not given), the Potency is reported as “inactive”.
For `COCC(=O)N1CCN(C(=O)c2cccc(F)c2)C[C@H]1C(=O)OC`, the Potency was “inactive”.
For `Cc1ccc(Nc2ccnc(N3CCN(C(=O)c4ccc(C)cc4)CC3)n2)cc1`, the Potency was inconclusive: 35.5 µM [inhibitor, full curve, poor fit].
For `Cn1cc(CC(=O)N2CCCc3ncc(C(=O)N4CCCC[C@@H]4c4ccccc4)cc32)c2ccccc21`, the Potency was inconclusive: 56.2 µM [inhibitor, partial curve, poor fit].
With `O=Cc1ccc(-c2cccc(O)c2)cc1` the Potency was inconclusive: 158 µM [inhibitor, single point].
For `O=C(NCc1ccccc1Cl)c1nc2sccn2c1-c1cccc(C(F)(F)F)c1`, the Potency was active: 25.1 µM.
With `O=[S+]([O-])(NCC1CN(Cc2cccc(Cl)c2)CC12CN(c1ccccc1)C2)c1ccccc1` (stereo not given) the Potency was inconclusive: 28.2 µM [inhibitor, full curve, poor fit].
For `Cc1noc(C)c1Cn1cc2c3c(cccc31)[C@H](CC(C)C)N[C@H](C(=O)N1CCOCC1)C2`, the Potency was inconclusive: 56.2 µM [inhibitor, partial curve, poor fit].
In the case of `COc1ccc2[nH]c3c(c2c1)CCN(C)C31CCN(C(=O)c2ccccc2)CC1`, the Potency is reported as inconclusive: 63.1 µM [inhibitor, partial curve, poor fit].
For `COc1cccc(-c2cc3c(=O)n(CCNC(=O)Cc4cccs4)ccn3n2)c1`, the Potency was inconclusive: 89.1 µM [inhibitor, single point].
With `Cn1ncc2c(C(=O)NCc3cccnc3)cc(-c3ccc(C(F)(F)F)cc3)nc21` the Potency was inconclusive: 50.1 µM [inhibitor, partial curve, poor fit].
In the case of `COc1ccc(Cc2nnc3ccc(C(=O)NCc4ccc(F)cc4)cn23)cc1`, the Potency is reported as “inactive”.
For `Cc1cccc(N(C)C(=O)Cn2c(=O)n(-c3ccccc3)c(=O)c3c2cc(C)n3C)c1`, the Potency was “inactive”.
In the case of `CCN(Cc1ccccc1)C(=O)[C@@]12CCCC[C@H]1N(CCOC)C(=O)CC2`, the Potency is reported as inconclusive: 100 µM [inhibitor, single point].
In the case of `O=S(=O)(c1ccccc1)N1CCC(Cc2nncn2-c2ccccc2)CC1`, the Potency is reported as inconclusive: 56.2 µM [inhibitor, partial curve, poor fit].
